{"source": "the supplement of paper PMC8728848", "experiment_in_all_cases": "glycan array binding signal (z-score within array); higher = stronger binding", "settings_in_all_cases": "glycan notation: IUPAC condensed, linker removed", "key": {"[1]": {"target": "Fuc(a1-2)Gal(b1-4)GlcNAc(b1-3)Gal(b1-4)GlcNAc(b1-2)Man(a1-3)[Fuc(a1-2)Gal(b1-4)GlcNAc(b1-3)Gal(b1-4)GlcNAc(b1-2)Man(a1-6)]Man(b1-4)GlcNAc(b1-4)GlcNAc", "procedure,_shortened": "(§1)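 Arrays were curated from the Consortium for Functional Glycomics database, 3228 in total, and kept only where the protein sequence was available. Binding is expressed as a within-array Z-score. This score was averaged across arrays of the same protein sequence at different concentrations or buffers and across linkers, and negative values can be read as non-binding.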"}, "[2]": {"target": "Fuc(a1-2)Gal(b1-4)GlcNAc(b1-3)Gal(b1-4)GlcNAc(b1-3)Gal(b1-4)GlcNAc", "procedure,_shortened": "as §1"}, "[3]": {"target": "Fuc(a1-2)Gal(b1-4)GlcNAc(b1-3)GalNAc", "procedure,_shortened": "as §1"}, "[4]": {"target": "Fuc(a1-2)Gal(b1-4)GlcNAc(b1-3)[Fuc(a1-2)Gal(b1-4)GlcNAc(b1-6)]GalNAc", "procedure,_shortened": "as §1"}, "[5]": {"target": "Fuc(a1-2)Gal(b1-4)GlcNAc(b1-3)[Fuc(a1-3)[Gal(b1-4)]GlcNAc(b1-6)]Gal(b1-4)Glc", "procedure,_shortened": "as §1"}, "[6]": {"target": "Fuc(a1-2)Gal(b1-4)GlcNAc(b1-6)GalNAc", "procedure,_shortened": "as §1"}, "[7]": {"target": "Fuc(a1-2)Gal(b1-4)GlcNAc6S", "procedure,_shortened": "as §1"}, "[8]": {"target": "Fuc(a1-2)Gal(b1-4)[Fuc(a1-3)]GlcNAc", "procedure,_shortened": "as §1"}, "[9]": {"target": "Fuc(a1-2)Gal(b1-4)[Fuc(a1-3)]GlcNAc(b1-2)Man(a1-3)[Fuc(a1-2)Gal(b1-4)[Fuc(a1-3)]GlcNAc(b1-2)Man(a1-6)]Man(b1-4)GlcNAc(b1-4)[Fuc(a1-6)]GlcNAc", "procedure,_shortened": "as §1"}, "[10]": {"target": "Fuc(a1-2)Gal(b1-4)[Fuc(a1-3)]GlcNAc(b1-2)[Fuc(a1-2)Gal(b1-4)[Fuc(a1-3)]GlcNAc(b1-4)]Man(a1-3)[Fuc(a1-2)Gal(b1-4)[Fuc(a1-3)]GlcNAc(b1-2)Man(a1-6)]Man(b1-4)GlcNAc(b1-4)GlcNAc", "procedure,_shortened": "as §1"}, "[11]": {"target": "Fuc(a1-2)Gal(b1-4)[Fuc(a1-3)]GlcNAc(b1-3)Gal(b1-4)[Fuc(a1-3)]GlcNAc", "procedure,_shortened": "as §1"}, "[12]": {"target": "Fuc(a1-2)Gal(b1-4)[Fuc(a1-3)]GlcNAc(b1-3)Gal(b1-4)[Fuc(a1-3)]GlcNAc(b1-3)Gal(b1-4)[Fuc(a1-3)]GlcNAc", "procedure,_shortened": "as §1"}, "[13]": {"target": "Fuc(a1-2)Gal(b1-4)[Fuc(a1-3)]GlcNAc(b1-3)GalNAc", "procedure,_shortened": "as §1"}, "[14]": {"target": "Fuc(a1-2)Gal(b1-4)[Fuc(a1-3)]GlcNAc(b1-3)[Neu5Ac(a2-6)Gal(b1-4)GlcNAc(b1-6)]Gal(b1-4)Glc", "procedure,_shortened": "as §1"}, "[15]": {"target": "Fuc(a1-2)Gal3S(b1-4)GlcNAc", "procedure,_shortened": "as §1"}, "[16]": {"target": "Fuc(a1-2)Gal6S(b1-3)GlcNAc", "procedure,_shortened": "as §1"}, "[17]": {"target": "Fuc(a1-2)Gal6S(b1-3)GlcNAc6S", "procedure,_shortened": "as §1"}, "Fuc(a1-2)Gal6S(b1-4)Glc": {"target": "Fuc(a1-2)Gal6S(b1-4)Glc", "procedure,_shortened": "as §1"}, "[18]": {"target": "Fuc(a1-2)Gal6S(b1-4)Glc6S", "procedure,_shortened": "as §1"}, "Fuc(a1-2)[Gal(a1-3)]Gal": {"target": "Fuc(a1-2)[Gal(a1-3)]Gal", "procedure,_shortened": "as §1"}, "[19]": {"target": "Fuc(a1-2)[Gal(a1-3)]Gal(b1-3)GalNAc", "procedure,_shortened": "as §1"}, "[20]": {"target": "Fuc(a1-2)[Gal(a1-3)]Gal(b1-3)GalNAc(b1-3)Gal(a1-4)Gal(b1-4)Glc", "procedure,_shortened": "as §1"}, "[21]": {"target": "Fuc(a1-2)[Gal(a1-3)]Gal(b1-3)GlcNAc", "procedure,_shortened": "as §1"}, "[22]": {"target": "Fuc(a1-2)[Gal(a1-3)]Gal(b1-3)GlcNAc(b1-2)Man(a1-3)[Fuc(a1-2)[Gal(a1-3)]Gal(b1-3)GlcNAc(b1-2)Man(a1-6)]Man(b1-4)GlcNAc(b1-4)GlcNAc", "procedure,_shortened": "as §1"}, "[23]": {"target": "Fuc(a1-2)[Gal(a1-3)]Gal(b1-3)GlcNAc(b1-2)Man(a1-3)[Fuc(a1-2)[Gal(a1-3)]Gal(b1-3)GlcNAc(b1-2)Man(a1-6)]Man(b1-4)GlcNAc(b1-4)[Fuc(a1-6)]GlcNAc", "procedure,_shortened": "as §1"}, "[24]": {"target": "Fuc(a1-2)[Gal(a1-3)]Gal(b1-3)GlcNAc(b1-3)GalNAc", "procedure,_shortened": "as §1"}, "[25]": {"target": "Fuc(a1-2)[Gal(a1-3)]Gal(b1-3)GlcNAc(b1-6)GalNAc", "procedure,_shortened": "as §1"}, "[26]": {"target": "Fuc(a1-2)[Gal(a1-3)]Gal(b1-4)Glc", "procedure,_shortened": "as §1"}, "[27]": {"target": "Fuc(a1-2)[Gal(a1-3)]Gal(b1-4)GlcNAc", "procedure,_shortened": "as §1"}, "[28]": {"target": "Fuc(a1-2)[Gal(a1-3)]Gal(b1-4)GlcNAc(b1-2)Man", "procedure,_shortened": "as §1"}}, "note": "The other results are listed elsewhere or left out.", "data": [{"binder": "PFL (Pseudomonas fluorescens) (protein) MSKYAVANQWGGSSAPWHPGGTWVLGARDNQNVVAIEIKSGDGGKSFTGTMTYAGEGPIGFKAQRTGQNQYNVENQWGGNDAPWHPGGKWVIGGRDNQNVIALSVTSSDGGKNLSGTNTYANEGPIGFRGQIE", "values": [{"measurement": "glycan array binding signal (z-score)", "setting": "[1]", "value": -0.049}, {"measurement": "glycan array binding signal (z-score)", "setting": "[2]", "value": -0.094}, {"measurement": "glycan array binding signal (z-score)", "setting": "[3]", "value": -0.108}, {"measurement": "glycan array binding signal (z-score)", "setting": "[4]", "value": -0.104}, {"measurement": "glycan array binding signal (z-score)", "setting": "[5]", "value": -0.058}, {"measurement": "glycan array binding signal (z-score)", "setting": "[6]", "value": -0.066}, {"measurement": "glycan array binding signal (z-score)", "setting": "[7]", "value": -0.115}, {"measurement": "glycan array binding signal (z-score)", "setting": "[8]", "value": -0.116}, {"measurement": "glycan array binding signal (z-score)", "setting": "[9]", "value": -0.05}, {"measurement": "glycan array binding signal (z-score)", "setting": "[10]", "value": -0.013}, {"measurement": "glycan array binding signal (z-score)", "setting": "[11]", "value": -0.118}, {"measurement": "glycan array binding signal (z-score)", "setting": "[12]", "value": -0.106}, {"measurement": "glycan array binding signal (z-score)", "setting": "[13]", "value": -0.102}, {"measurement": "glycan array binding signal (z-score)", "setting": "[14]", "value": -0.107}, {"measurement": "glycan array binding signal (z-score)", "setting": "[15]", "value": -0.118}, {"measurement": "glycan array binding signal (z-score)", "setting": "[16]", "value": -0.109}, {"measurement": "glycan array binding signal (z-score)", "setting": "[17]", "value": -0.103}, {"measurement": "glycan array binding signal (z-score)", "setting": "Fuc(a1-2)Gal6S(b1-4)Glc", "value": -0.115}, {"measurement": "glycan array binding signal (z-score)", "setting": "[18]", "value": -0.092}, {"measurement": "glycan array binding signal (z-score)", "setting": "Fuc(a1-2)[Gal(a1-3)]Gal", "value": -0.113}, {"measurement": "glycan array binding signal (z-score)", "setting": "[19]", "value": -0.11}, {"measurement": "glycan array binding signal (z-score)", "setting": "[20]", "value": -0.105}, {"measurement": "glycan array binding signal (z-score)", "setting": "[21]", "value": -0.114}, {"measurement": "glycan array binding signal (z-score)", "setting": "[22]", "value": 0.083}, {"measurement": "glycan array binding signal (z-score)", "setting": "[23]", "value": 0.415}, {"measurement": "glycan array binding signal (z-score)", "setting": "[24]", "value": -0.113}, {"measurement": "glycan array binding signal (z-score)", "setting": "[25]", "value": -0.105}, {"measurement": "glycan array binding signal (z-score)", "setting": "[26]", "value": -0.111}, {"measurement": "glycan array binding signal (z-score)", "setting": "[27]", "value": -0.104}, {"measurement": "glycan array binding signal (z-score)", "setting": "[28]", "value": -0.115}]}]}
